The full ranking holds about 110,000 compounds; the median of “z-score” is about -0.1, and the highest 2% start at about 2. Some of the results follow. The source made the active and inactive calls.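 How the source made its calls: active means z-score in the third read window above 3 or below -3; inactive means the rest.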
Molecular target: Metabotropic glutamate receptor 8 (Rattus norvegicus) (UniProt P70579)
Assay: mGluR8 Gi/Go-coupled signaling modulation – cell-based, rat, thallium flux, HTS, primary screen (AID 488969)
Conditions: HEK293 rat mGluR8, GIRK (G protein-gated inwardly rectifying potassium channel) thallium flux, FluoZin2; at 10 µM; stronger effect = higher value; submaximal glutamate (EC20) added with thallium

UniProt P70579, sequence (P70579 whole entry, looked up): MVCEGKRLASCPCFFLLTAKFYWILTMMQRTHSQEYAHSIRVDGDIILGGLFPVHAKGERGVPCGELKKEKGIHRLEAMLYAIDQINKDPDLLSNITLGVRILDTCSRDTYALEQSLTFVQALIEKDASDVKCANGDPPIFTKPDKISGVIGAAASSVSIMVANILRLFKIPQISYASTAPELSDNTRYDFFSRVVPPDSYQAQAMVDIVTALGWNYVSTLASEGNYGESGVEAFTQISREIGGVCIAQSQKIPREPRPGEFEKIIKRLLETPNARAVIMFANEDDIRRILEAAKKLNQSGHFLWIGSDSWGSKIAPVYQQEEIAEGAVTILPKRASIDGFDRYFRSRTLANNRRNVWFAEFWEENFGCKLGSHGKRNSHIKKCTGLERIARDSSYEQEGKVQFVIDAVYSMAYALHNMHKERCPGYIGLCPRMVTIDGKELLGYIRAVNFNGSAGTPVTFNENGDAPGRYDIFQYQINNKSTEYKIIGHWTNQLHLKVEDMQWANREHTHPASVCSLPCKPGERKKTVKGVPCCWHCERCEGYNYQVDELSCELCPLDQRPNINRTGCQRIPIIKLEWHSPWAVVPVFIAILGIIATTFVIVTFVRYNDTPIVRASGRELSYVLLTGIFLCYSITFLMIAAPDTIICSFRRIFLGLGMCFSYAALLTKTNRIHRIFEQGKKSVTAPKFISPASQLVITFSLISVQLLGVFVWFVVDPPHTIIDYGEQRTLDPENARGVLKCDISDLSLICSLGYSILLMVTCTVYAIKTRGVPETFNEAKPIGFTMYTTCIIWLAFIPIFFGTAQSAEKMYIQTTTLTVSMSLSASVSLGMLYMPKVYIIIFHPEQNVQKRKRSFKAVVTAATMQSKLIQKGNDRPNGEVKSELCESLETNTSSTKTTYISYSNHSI

Row | SMILES | z-score
1 | CCOc1cccc(SCc2noc(C(=O)NCCOC)c2C(=O)O)c1 | 0.152
2 | Cc1ccc(-n2nnnc2-c2cnc(-c3cccnc3)nc2C(F)(F)F)cc1 | -0.112
3 | CC(C)Cn1[nH]c2c3c(ccc2c1=O)C(=O)c1ccccc1C3=O | -0.0866
4 | CCCCCCn1c(SCCCC)nc2c1c(=O)[nH]c(=O)n2C | -0.925
5 | CC(=O)N1CCC(N(C(=O)Nc2c(F)cccc2F)C(C)C)CC1 | 0.175
6 | O=c1c2c3n(c(=S)nc2[nH]n1-c1ccccc1)CCCCC3 | 1.53
7 | Oc1c(Br)cc2oc3c(c2c1CNCc1ccccc1)CCCC3 | -0.128
8 | COc1ccc(NC(=O)CSc2ncnc3c2cnn3CCc2ccccc2)cc1 | -0.079
9 | CCn1c(C)c(C(C)=O)c(N2CCN(c3ccccc3)CC2)nc1=S | -0.0503
10 | Cc1cc(C)n2cc(CSc3nc4ccccc4s3)nc2n1 | -0.0757
11 | Cc1ccc2cc(CN(CCCO)S(=O)(=O)c3cccc4nsnc34)c(=O)[nH]c2c1 | 0.13
12 | Cc1ccc(-c2onc3ccc(C4(C)OCCO4)cc23)cc1 | 0.0375
13 | CC1(C)SC(=S)N(NC(=O)Nc2cccc3ccccc23)C1N(O)C(=O)Nc1ccccc1 (centres undefined) | 1.25
14 | Cc1nc2ccc(N=NC3=C(O)CCCC3=O)cc2s1 | -0.117
15 | O=C(Nc1ccncc1)c1cncc(Br)c1 | -0.394
16 | CN(c1ccc(C(=O)NCc2ccncc2)cc1)S(C)(=O)=O | 0.373
17 | C/C(=N\NC(=O)c1cccc(S(=O)(=O)Nc2cccc(Cl)c2)c1)c1cccs1 | -0.16
18 | CC(C)Cc1csc(NC(=O)c2ccc(F)cc2)c1C(=O)O | -0.234
19 | N#C/C(=C\c1ccco1)C(=O)Nc1cccc2ncccc12 | -0.604
20 | Cc1nc2nc(SCC(=O)NCc3ccco3)nn2c(C)c1Cc1ccccc1 | -0.448
21 | CC1CN=C2C(C(=O)Nc3ccccc3)=C(O)CC(c3ccccc3)N21 (centres undefined) | 2.31
22 | CCn1c(CSc2nc3ccccc3s2)nnc1SCC(=O)OC(C)(C)C | 0.041
23 | COC(=O)c1ccc(CSc2nnc(Nc3cccc(OC)c3)s2)o1 | 0.67

Row | SMILES | z-score
24 | Cc1nnc(NC(=O)c2oc3c(ccc4ccccc43)c2C)s1 | 0.0197
25 | Cc1nnsc1SC(C)C(=O)O (centres undefined) | 0.0695
26 | Brc1ccc(CSc2nnc(Cc3c[nH]c4ccccc34)o2)cc1 | -0.472
27 | O=C(NCc1ccco1)c1cnn2c(C(F)(F)F)cc(-c3ccccc3)nc12 | -0.67
28 | COc1ccccc1-c1noc(-c2ccco2)n1 | 0.95
29 | CCC(=O)Nc1ccc(N2CCN(S(C)(=O)=O)CC2)cc1 | -0.134
30 | CCN1C(=O)CC(N2CCC(Nc3ccc(OC)cc3)CC2)C1=O (centres undefined) | 0.0918
31 | CCC(C)[C@H](NC(=O)Nc1ccc2c(c1)OCCO2)C(=O)O (some centres undefined) | -0.196
32 | Clc1ccccc1C1CC(c2ccccc2)Nc2ncnn21 (centres undefined) | -1.78
33 | COC(=O)C(C)Sc1nnc(-c2ccncc2)o1 (centres undefined) | -0.297
34 | COc1ccc(S(=O)(=O)NCCc2cn3cccc(C)c3n2)cc1OC | 0.0226
35 | CC1CCCC(N2C(=O)NC(NC(=O)c3ccco3)(C(F)(F)F)C2=O)C1C (centres undefined) | 0.364
36 | COc1ccc(N2C(=O)CC(S/C(N)=N/N=C/c3ccnc4ccccc34)C2=O)cc1 (centres undefined) | -0.229
37 | CCNc1nc(NCC)n2c(SCC(=O)NC34CC5CC(CC(C5)C3)C4)nnc2n1 | -0.392
38 | CCOc1ccc(NC(=O)CSc2nccn2C)cc1 | -0.0963
39 | COC(=O)Cc1cc(=O)[nH]c(/N=C(\N)Nc2ccccc2C)n1 | 0.0712
40 | COc1ccccc1OCc1nnc(SCC(=O)NCc2ccco2)n1-c1ccccc1 | -0.449
41 | Cc1occc1C(=O)N/N=C/C1=C(N2CCOCC2)C(=C\c2ccc(Cl)cc2)/CC1 | -0.128
42 | Cc1nn(C(=O)c2cccc([N+](=O)[O-])c2)c(C)c1Sc1ccccc1 | 0.182
43 | O=C(NCc1ccco1)c1scc2c1OCCO2 | -0.343
44 | CCCCC(=O)c1c(C)cc(C)[nH]c1=O | -0.388
45 | O=C(Cc1ccccc1)N1CCc2ccccc21 | -0.123
46 | O=C1C2C3C=CC(C3)C2C(=O)N1c1cccnc1 (centres undefined) | -0.0534

Row | SMILES | z-score
47 | Nn1c(-c2ccccn2)nnc1-c1ccccn1 | 0.166
48 | COc1ccc(NC(=S)Nc2cccc([N+](=O)[O-])c2)cc1 | 0.0335
49 | CNC(=O)c1ccc2snnc2c1 | 0.136
50 | CCn1c(SCC(=O)Nc2cccc(NC(C)=O)c2)nnc1C(C)C | -0.322
51 | Cc1ccc(NC2=C(Cl)C(=O)OC2OC(=O)c2ccco2)cc1C (centres undefined) | -0.387
52 | CS(=O)(=O)Nc1ccc(C2=NN(C(=O)C3CCCCC3)C(c3cccs3)C2)cc1 (centres undefined) | active: -4.15
53 | CCOC(=O)c1ccc(Nc2nnc3nc(C)cc(C)n23)cc1 | 0.145
54 | S=C(NCc1ccc(Cl)cc1)Nc1ccc(Cl)cc1Cl | -0.0419
55 | C=CCN=C(C)C1=C(O)C(C)OC1=O (centres undefined) | 0.0669
56 | CC(C)(C)NCC(O)COc1c(F)cc(Br)cc1F (centres undefined) | 0.622
57 | Cc1cc(C(=O)Nn2c(-c3ccc(Br)cc3)nc3ccccc3c2=O)ccc1[N+](=O)[O-] | 0.0148
58 | Cc1nn(-c2ccccc2)c(Cl)c1C(=O)OC(C)C(=O)Nc1ccc2c(c1)OCO2 (centres undefined) | -0.936
59 | O=C(O)c1c[nH]ccc1=O | -0.307
60 | Cc1nc(NC(C)(C)CO)c([N+](=O)[O-])cc1[N+](=O)[O-] | -0.154
61 | COC(=O)c1cc(C#N)c(NCc2ccc(Cl)cc2Cl)nc1C | -0.106
62 | O=C1CN(C(=O)c2ccc(Br)o2)C(c2ccccc2)c2cc(Br)ccc2N1 (centres undefined) | -0.575
63 | COC(=O)c1sccc1NC(=O)c1cc(-c2ccc(C)cc2)nc2ccccc12 | -0.553
64 | COc1cc(/C=N/NC(=O)COc2cc(C)cc(C)c2)ccc1OS(=O)(=O)c1ccc(C)cc1 | -0.228
65 | Cc1ccc(C(C#N)N2CCOCC2)cc1 (centres undefined) | -0.0816
66 | O=C(NC1CCCc2ccccc21)C1CCN(c2c3c(nc4ncnn24)CCC3)CC1 (centres undefined) | -0.302
67 | COc1ccc(C(C#N)C2(C)OCCO2)cc1OC (centres undefined) | -0.255
68 | CCCCOC(=O)C(C)Nc1n[nH]c(=S)[nH]c1=O (centres undefined) | -0.489
69 | O=[N+]([O-])c1ccc(OCCN2CCCCCC2)cc1 | 0.121

Row | SMILES | z-score
70 | CCOC(=O)c1sc(NC(=O)c2ccccc2F)c(C(N)=O)c1C | -0.488
71 | COC(=O)CSc1nc(N)c(C#N)c(-c2ccco2)c1C#N | -0.328
72 | COc1cc(OC)cc(C(=O)NC2CCN(C(=O)N3c4ccccc4Sc4ccccc43)CC2)c1 | -0.171
73 | COc1cc(C)c(NC(=S)Nc2cccc(Cl)c2)cc1OC | 0.0992
74 | Cc1ccc(-n2[nH]c(C)c(C=Nc3ccc4[nH]c(=O)[nH]c4c3)c2=O)cc1C | -0.26
75 | COCCCNC(=O)CS(=O)(=O)Cc1nc(-c2ccccc2C)oc1C | -1.79
76 | CC(C)(C)OC(=O)N1CCC[C@H]1c1nnc(SC/C=C/c2ccccc2)o1 | -0.145
77 | COc1ccc(C(=O)N(Cc2ccccc2)Cc2cc3cc4c(cc3[nH]c2=O)OCCO4)cc1 | 0.201
78 | O=C(c1ccco1)N1CCN(C(c2ccc(F)cc2)c2nnnn2Cc2cccs2)CC1 (centres undefined) | -0.0646
79 | CN(C(=O)CSc1nc(C2CC2)nc2ccccc12)c1nc(-c2ccccc2)cs1 | 0.46
80 | CCc1nnc(NS(=O)(=O)c2ccc(N/C=C\C(=O)c3cccc4ccccc34)cc2)s1 | -0.313
81 | Cc1ccc(Sc2cnc3ccccc3n2)cc1 | -0.0867
82 | Cc1ccc(NC(NC(=O)c2ccccn2)C(Cl)(Cl)Cl)cc1 (centres undefined) | 0.295
83 | C[n+]1ccccc1N1CCN(c2ccccc2Cl)CC1 | -0.103
84 | Cc1ccc2nc(CSc3nnc(Cc4cccs4)n3C3CCCCC3)cc(=O)n2c1 | 0.361
85 | O=C(CSc1nc2ccccc2n1CC(=O)NCc1ccccc1)NCc1ccco1 | 0.0601
86 | CCN(CC)c1ccc(N=Cc2c(C)[nH]c3ccccc23)cc1 | 0.894
87 | COc1ccc(NC(=O)C(NC(=O)Cc2cccs2)c2ccc(C)cc2)cc1 (centres undefined) | 0.42
88 | CCN(CC)S(=O)(=O)c1ccc(Cl)c(C(=O)OC)c1 | -0.181
89 | COc1ccccc1COCC(O)CN(Cc1ccco1)Cc1ccccc1O (centres undefined) | -0.39
90 | Cc1nn(C)c(C)c1S(=O)(=O)NC1CCCC1 | 0.579
91 | CCOC(=O)c1sc(NC(=O)c2sccc2C)cc1C | -0.633
92 | CC(Sc1nc(-c2ccc(F)cc2)cs1)C(=O)N1c2ccccc2CC1C (centres undefined) | 0.0161

Row | SMILES | z-score
93 | O=S(=O)(N1CCOCC1)n1nnc2ccccc21 | 0.545
94 | Cn1c(=O)c2ncn(CC(=O)NCCOc3ccc(C(C)(C)C)cc3)c2n(C)c1=O | 0.893
95 | CC(=O)Nc1cccc(C(=O)/C=C/c2ccc(/C=C/C(=O)c3cccc(NC(C)=O)c3)cc2)c1 | 0.033
96 | CCSc1nc(N)nc(-c2cccs2)c1C#N | -0.794
97 | Cc1ccc(NC(=O)CC2SC(=O)NC2=O)cc1 (centres undefined) | -0.167
98 | Cc1cc2nc(-c3ccc(SCC(=O)N4CCc5ccccc54)nc3)[nH]c2cc1C | -0.205
99 | CN(C)C(=O)COC(=O)c1cc(Cl)cc(Cl)c1N | 0.496
100 | Cc1cc(C)c(C#N)c(SCC(=O)C(C)(C)C)n1 | -0.42
101 | COc1cccc(/C=N/NC(=O)CSc2ccccc2C)c1O | -0.279
102 | COc1ccc(Cl)cc1NC(=O)C(C)NC(c1ccccc1)c1ccccc1 (centres undefined) | -0.301
103 | O=C(c1cnn2c(C(F)(F)F)cc(-c3ccco3)nc12)N1CCCc2ccccc21 | -0.976
104 | COc1ccc(CCC(=O)Nc2cc(Cl)ccc2OC)cc1 | -0.554
105 | O=C(CCC(=O)c1ccc(Cl)cc1)OCC(=O)c1ccccc1 | -0.368
106 | Cc1ccc(-c2cc(C(=O)N/N=C/c3ccco3)[nH]n2)cc1 | -0.942
107 | Cc1nn(CC(=O)O)c(C)c1Cl | -0.319
108 | CC(=O)Nc1ccc(Sc2ncnc3scc(-c4ccccc4)c23)cc1 | -0.306
109 | CCCC(C)NC(=O)Cc1ccc(Br)cc1 (centres undefined) | -0.111
110 | COc1ccc(-c2nn(-c3ccccc3)cc2CO)cc1 | -0.269
111 | CCOC(=O)c1cnc(SCC(C)C)nc1N | -0.417
112 | CC12CCC(C(=O)NNc3ccc([N+](=O)[O-])cc3)(CC1=O)C2(C)C (centres undefined) | 0.376
113 | CNC(=S)N/N=C/c1cn(Cc2ccc(C)cc2)c2ccccc12 | -0.123
114 | O=C1NC(=Nc2cccc(Cl)c2)SC1Cc1cccc(Cl)c1Cl (centres undefined) | -0.324
